PubChem BioAssay AID652104 (National Center for Advancing Translational Sciences (NCATS), 2013)
The campaign covered roughly 410,000 compounds. About 7,200 (1.8%) were called active. This list was built around the results that the source calls inconclusive (neither active nor inactive); the mix of calls is not that of the screen. Calls follow the shape of the dose curve; as a rule, active = well fitted activation curve with a large enough effect; inconclusive = small, poorly fitted or top-dose-only effect, or another doubt; inactive = no such curve, though single readings can be large or run the other way. No potency is given beside an inconclusive call; the fits are too rough.

Assay: qHTS of TDP-43 Inhibitors; also: nearly all actives have a fitted effect of over 50% in size; as to growth rescue (activation): % of control where 0% means no effect
Conditions: TDP-43 expressing yeast growth rescue, BacTiter-Glo, 24 h; growth rescue (activation): at 46.1 µM (top of the series)
How it was run: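 Readout is BacTiter-Glo luminescence of cell growth, so inhibitors register as activators. TDP-43-expressing yeast at OD600=0.02 in galactose medium, after raffinose pregrowth to mid-log, were incubated with compound for 24 hr at 30 deg C.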
Potency is read from the fitted curve at half-maximal effect; tags tell the direction and shape of the fitted curve.

SMILES	Potency	growth rescue (activation)
COCCOC(=O)c1c(C)oc2ccc(OC(=O)N(C)C)cc12	inconclusive [activator, partial curve]	
Cc1cccn2c(=O)c3c(nc12)N1CCC(Cc2ccccc2)CC1C1(C3)C(=O)N(C)C(=O)N(C)C1=O (stereo not given)		inactive: 29.3%
COC(=O)C1=C(c2ccc(OC(F)(F)F)cc2)C[C@@H]2CC[C@H]1N2C(=O)NC(C)C	inconclusive [activator, partial curve]	
CCc1ccc(NC(=O)C(C)OC(=O)c2c(C)nn(Cc3ccccc3)c2Cl)cc1 (stereo not given)	inconclusive [activator, partial curve]	
COc1ccc(CNC(=O)c2cnn3c(C)c(Cc4ccc(F)cc4)c(C)nc23)cc1	inconclusive [activator, partial curve]	
N#Cc1ccc(Cn2cc(C(=O)c3ccco3)c3ccccc32)cc1	active: 17.8 µM	
CCn1c(=O)oc2cc(NC(=O)CCl)ccc21	inconclusive [activator, single point]	
CC1=C(C/C(C)=C/c2ccccc2)/C(=C/CO)[C@H](O)[C@](C)(O)C12CC2	inconclusive [activator, partial curve]	
C[C@H]1COC(=O)[C@@H](Cc2ccc(F)cc2)CC/C=C/C[C@@H](CC(=O)N(CCO)Cc2ccccc2)C(=O)N1	inconclusive [activator, partial curve, poor fit]	
COc1ccc(Nc2nc(N)nc(CSc3nc4ccccc4s3)n2)cc1	active: 20 µM	
CN1C(=O)C(=Cc2ccccc2OCc2ccc(C(=O)O)cc2)C(=O)N(C)C1=O		inactive: -18.8%
COc1ccc(C(c2nnnn2-c2c(C)cccc2C)N2CCC(n3c(=O)[nH]c4ccccc43)CC2)cc1 (stereo not given)	inconclusive [activator, single point]	
COc1cccc(NP(=O)(Oc2ccc(Cl)cc2)Oc2ccc(Cl)cc2)c1		inactive: 0%
Cc1ccccc1CS(=O)(=O)Cc1ccc(C(=O)N2CCC3(CC2)OCCO3)o1		inactive: -7.11%
O=C(Nc1ccc2c(c1)OCO2)c1cn(Cc2ccc(F)cc2)nn1	inconclusive [activator, partial curve]	
O=C(Nc1ccc2c(c1)OCO2)c1cccn(Cc2ccccc2)c1=O	inconclusive [activator, partial curve, poor fit]	
Cc1cccc(NC(=O)c2cc3c(=O)n4ccccc4nc3n2C)c1C	inconclusive [activator, single point]	
c1csc(-c2nnc(Cc3cccc4ccccc34)o2)c1	inconclusive [activator, single point]	
N#Cc1c(Cl)nc(Cl)c2c1CCN(Cc1ccccc1)C2		inactive: -0.871%
CC(Cc1ccccc1)NCCC(c1ccccc1)c1ccccc1 (stereo not given)	inconclusive [activator, partial curve, poor fit]	
COCCCn1c(N)c(C(=O)Nc2sc3c(c2C(=O)OC)CCCC3)c2nc3ccccc3nc21		inactive: -6.49%
O=S(=O)(c1ccc(Cl)cc1)N1CCC(n2cnc3cc(C(F)(F)F)ccc32)CC1	active: 31.6 µM	

SMILES	Potency	growth rescue (activation)
COc1ccccc1NC(=O)CCn1cnc2onc(-c3ccc(F)cc3)c2c1=O	inconclusive [activator, partial curve]	
Cc1ccc(Oc2cnn(-c3ccccc3)c(=O)c2Br)cc1	inconclusive [activator, partial curve]	
CCC(C)NC(=O)CCC(=O)OC1O[C@H]2OC3(C)CC[C@H]4[C@H](C)CCC(C1C)C24OO3 (stereo not given in full)	active: 35.5 µM	
COC(=O)C1=C(c2ccc(-c3ccccc3)c(F)c2)C[C@@H]2CC[C@H]1N2C(=O)N1CCOCC1	active: 20 µM	
COC(=O)C1=C(c2ccc(OC(F)(F)F)cc2)C[C@@H]2CC[C@H]1N2C(=O)NCc1cc(C)oc1C(F)(F)F	inconclusive [activator, partial curve]	
S=C(Nc1ccccc1)Nc1ccccn1	inconclusive [activator, partial curve]	
NP(=O)(OCCCc1ccccc1)Oc1ccc(Cl)cc1 (stereo not given)	inconclusive [activator, partial curve]	
CCOC(=O)c1c(NC(NC(=O)CF)C(Cl)(Cl)Cl)sc2c1CCCC2 (stereo not given)	active: 22.4 µM	
Nc1cccc2c1Cc1cc([N+](=O)[O-])ccc1-2	inconclusive [activator, full curve, poor fit]	
Cc1nn(CC(C)C)c(Cl)c1C(=O)NC1CCCCC1	inconclusive [activator, partial curve]	
COC(=O)C1=C(c2ccc(F)cc2OCc2ccccc2)C[C@@H]2CC[C@H]1N2C(=O)NC(C)C	inconclusive [activator, single point]	
O=C1CC(c2ccc(C(F)(F)F)cc2)c2c(c3ccccc3oc2=O)O1 (stereo not given)	inconclusive [activator, partial curve]	
Cc1cccc(NC(=O)Oc2ccc(Cl)c3cccnc23)c1	inconclusive [activator, partial curve]	
Cc1ccc(Sc2ccc(C=C3C(=O)N(C)C(=O)N(C)C3=O)o2)cc1	inconclusive [activator, single point]	
c1cc2c(cc1CCNC1CCCCCC1)OCO2		inactive: 3.13%
CC(=O)Nc1ccc(C(=O)OCC(=O)Nc2ccc(Cl)cc2C(=O)c2ccccc2)cc1	inconclusive [activator, single point]	
Cc1cccc(OCCNc2ncccc2[N+](=O)[O-])c1	inconclusive [activator, partial curve]	
COC(=O)C(O)(c1ccc(NC(=S)NC(=O)c2ccccc2)cc1)C(F)(F)F (stereo not given)	inconclusive [activator, single point]	
COc1ccc(-n2c(/C=C/c3ccc(O)c(OC)c3)nc3ccccc3c2=O)cc1	inconclusive [activator, single point]	
CCC(=NCCc1ccccc1)c1c(O)n(C)c(=O)n(C)c1=O	inconclusive [activator, partial curve]	
Cc1ccc(NC(=O)CN2C(=O)CN=C(c3ccccc3)c3ccccc32)cc1Cl	inconclusive [activator, single point]	
Cc1ccccc1-n1c(-c2ccc([N+](=O)[O-])cc2)nc2ccccc2c1=O	inconclusive [activator, partial curve]	

SMILES	Potency	growth rescue (activation)
CCOC(=O)C(O)(c1ccc(NC(=O)c2ccc(Cl)c(Cl)c2)cc1)C(F)(F)F (stereo not given)	inconclusive [activator, partial curve]	
O=C(N/N=C/c1c(O)n(C2CCCCC2)c(=S)[nH]c1=O)c1ccccc1O		inactive: 13.3%
CC/C(=N\NC(=O)c1ccccc1)c1c(O)n(C2CCCCC2)c(=O)[nH]c1=O	inconclusive [activator, single point]	
CC[C@@]1(O)C(=O)OCc2c1cc1n(c2=O)Cc2cc3c(NC(=O)CN)cccc3nc2-1		inactive: -6.11%
COc1ccc(NC(=O)CCn2cc(C)c3ccccc32)cc1	inconclusive [activator, partial curve]	
COC(=O)C1=C(C(=O)OC)C2OC1c1cc3ccccc3cc12		inconclusive: -92.8% [activator]
CC1C(c2ccccc2)OCCN1C (stereo not given)		inactive: 0%
CC(=O)OC(CC(=O)O)C[N+](C)(C)C (stereo not given)	inconclusive [activator, partial curve]	
COc1cc2c(ccc3c4cc(OC)c(OC)cc4c[n+](C)c23)cc1O	active: 11.2 µM	
CCOc1ccccc1Oc1coc2cc(OC(=O)N(C)C)ccc2c1=O	inconclusive [activator, single point]	
CCc1ccc(-n2nc(C)c3c2NC(=O)CSC3c2ccccc2C)cc1 (stereo not given)	inconclusive [activator, single point]	
COC(=O)C1=C(c2ccc(F)cc2OCc2ccccc2)C[C@@H]2CC[C@H]1N2C(=O)NCc1cccc(F)c1	inconclusive [activator, partial curve]	
Cc1nn(Cc2ccccc2)c(Cl)c1C(=O)Nc1ccc(OC(F)(F)F)cc1	inconclusive [activator, full curve, poor fit]	
O=C(O)C12C3CCCC1C32c1ccccc1 (stereo not given)	inconclusive [activator, single point]	
CC(C)CC(NC(=O)CCCNC(=O)CCC(=O)OC1O[C@H]2OC3(C)CC[C@H]4[C@H](C)CCC(C1C)C24OO3)C(=O)O (stereo not given in full)	active: 20 µM	
COC(=O)C1=C(c2cc3ccccc3s2)C[C@@H]2CC[C@H]1N2C(=O)NC1CCCCC1	inconclusive [activator, single point]	
Oc1cccc2nc3ccccc3nc12	inconclusive [activator, full curve]	
COc1cc(/C=C/[N+](=O)[O-])ccc1OC(=O)c1cccnc1		inconclusive: -90.6% [activator]
COc1ccccc1C1Nc2ccccc2-n2c(-c3ccccc3)c3c(=O)n(C)c(=O)n(C)c3c21 (stereo not given)	inconclusive [activator, single point]	
CCCNC(=O)N1[C@H]2CC[C@@H]1C(C(=O)OC)=C(c1ccc(-c3ccccc3)c(F)c1)C2	inconclusive [activator, single point]	
CC(=O)C1=C(O)C2(C)c3c(O)c(C)c(O)c(C(C)=O)c3OC2CC1=O (stereo not given)		inactive: -74.4%
